This note sets out measurements from paper PMC4336329 (PLoS ONE, 2015).

SMILES strings stand for the structures. Out of some 310,000 compounds screened, about 2,200 (0.71%) showed an effect of 50% or more. The effect is printed as a negative number. The list shows a part of the results.

Chain of human ether-à-go-go-related gene (hERG) potassium channel (Q12809 whole entry, looked up): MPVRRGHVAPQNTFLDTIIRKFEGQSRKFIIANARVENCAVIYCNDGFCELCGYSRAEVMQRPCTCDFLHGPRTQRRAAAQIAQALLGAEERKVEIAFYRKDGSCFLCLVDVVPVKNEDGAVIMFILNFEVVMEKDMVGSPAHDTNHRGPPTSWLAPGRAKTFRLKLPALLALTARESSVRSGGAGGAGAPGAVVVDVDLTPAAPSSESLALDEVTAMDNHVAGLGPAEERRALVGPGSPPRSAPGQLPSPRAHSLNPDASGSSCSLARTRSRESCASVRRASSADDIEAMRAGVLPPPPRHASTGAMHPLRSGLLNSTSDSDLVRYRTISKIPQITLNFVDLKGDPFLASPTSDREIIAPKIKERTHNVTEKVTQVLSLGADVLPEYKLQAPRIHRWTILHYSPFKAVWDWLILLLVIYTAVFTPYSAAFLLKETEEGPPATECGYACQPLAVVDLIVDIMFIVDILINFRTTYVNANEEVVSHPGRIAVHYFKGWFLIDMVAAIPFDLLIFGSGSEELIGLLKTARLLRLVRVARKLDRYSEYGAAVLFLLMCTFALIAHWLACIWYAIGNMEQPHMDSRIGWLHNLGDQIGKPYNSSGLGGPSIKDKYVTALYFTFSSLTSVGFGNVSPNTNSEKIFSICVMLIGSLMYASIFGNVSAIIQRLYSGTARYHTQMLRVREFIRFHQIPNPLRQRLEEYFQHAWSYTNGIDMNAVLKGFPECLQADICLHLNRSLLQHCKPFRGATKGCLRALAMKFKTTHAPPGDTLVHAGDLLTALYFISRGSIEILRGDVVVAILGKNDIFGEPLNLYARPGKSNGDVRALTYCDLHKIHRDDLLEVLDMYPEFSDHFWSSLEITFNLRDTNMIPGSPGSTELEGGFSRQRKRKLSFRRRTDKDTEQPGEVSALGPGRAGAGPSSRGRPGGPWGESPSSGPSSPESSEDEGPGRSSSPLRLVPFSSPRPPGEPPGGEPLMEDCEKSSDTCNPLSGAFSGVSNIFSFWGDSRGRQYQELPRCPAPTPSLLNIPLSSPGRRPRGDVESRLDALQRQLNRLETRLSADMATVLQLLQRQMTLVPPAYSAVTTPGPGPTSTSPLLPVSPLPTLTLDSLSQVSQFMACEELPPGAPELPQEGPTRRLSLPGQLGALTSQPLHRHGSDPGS

The assay has as its target human ether-à-go-go-related gene (hERG) potassium channel (human, UniProt Q12809). Kind of assay: primary screen, population patch clamp on CHO cells stably expressing hERG.
Consider `Cc1ccc(Cl)cc1NC(=O)CC(O)(C(F)(F)F)C(F)(F)F`, for which the “hERG current change (%, negative = inhibition) at 1uM” value was -1.37%. With `COC(=O)c1c(C(=O)OC)c(-c2ccc(F)cc2)n2c1CS(=O)(=O)C2`, the “hERG current change (%, negative = inhibition) at 1uM” value is on record as 6.83%. As to `CC(OC(=O)c1ccc(Cl)c(S(=O)(=O)N2CCc3ccccc32)c1)C(=O)Nc1ncc(Cl)cc1Cl` (centres unmarked), the “hERG current change (%, negative = inhibition) at 1uM” value is given as -0.55%. Take `Cc1ccc(S(=O)(=O)NCCCC(=O)N2CCC(C)CC2)cc1`: the “hERG current change (%, negative = inhibition) at 1uM” value amounted to 11.6%.

Regarding `O=C(O)C(=O)O.OCCN(Cc1ccccc1)Cc1ccccc1O`, the “hERG current change (%, negative = inhibition) at 1uM” value stood at 10.7%.

On to `CC(C)(Oc1ccc(CCNC(=O)c2ccc(-c3ccc(Cl)cc3)o2)cc1)C(=O)O`, for which the “hERG current change (%, negative = inhibition) at 1uM” value came to 14%.

For the compound `Cc1ccc(NC(=O)CCC(=O)N/N=C/c2coc3ccc(F)cc3c2=O)cc1`, the “hERG current change (%, negative = inhibition) at 1uM” value worked out at 6.01%. On to `COc1ccc(NC(=O)c2ccccc2SC)cc1OC`, for which the “hERG current change (%, negative = inhibition) at 1uM” value was -1.65%.

For the compound `CCOC(=O)N1CCN(C(=O)c2c(-c3ccccc3Cl)noc2C)CC1`, the “hERG current change (%, negative = inhibition) at 1uM” value is recorded as 10.4%. As for `COC(=O)c1cc(C(=O)OC)cc(-n2c(C)cc(C(=O)COC(=O)CNS(=O)(=O)c3ccc(C)cc3)c2C)c1`, the “hERG current change (%, negative = inhibition) at 1uM” value was 4.44%. On to `COc1cc(/C=C(/C#N)C(=O)Nc2ccccc2)ccc1OCc1ccc(C(=O)O)cc1`, for which the “hERG current change (%, negative = inhibition) at 1uM” value came to 7.51%. Turning to `O=C(COC(=O)C1CCC(N2C(=O)C3C4CCC(C4)C3C2=O)CC1)c1ccc(F)cc1` (centres unmarked), the “hERG current change (%, negative = inhibition) at 1uM” value stood at 5.18%. Consider `O=C(NCc1ccc2c(c1)OCO2)c1ccc(COc2cc(Cl)ccc2Cl)o1`, for which the “hERG current change (%, negative = inhibition) at 1uM” value is reported as 15.7%. Take `CCNC(=O)c1c(C)nc2ccccn12`: the “hERG current change (%, negative = inhibition) at 1uM” value was -5.23%.

For `COC(=O)c1ccccc1OCC(=O)N1CCN(c2ccc(Cl)cc2)CC1`, the “hERG current change (%, negative = inhibition) at 1uM” value was -6.4%. Consider `COc1ccccc1CNC(=O)COC(=O)c1ccc([N+](=O)[O-])o1`, for which the “hERG current change (%, negative = inhibition) at 1uM” value is 8.33%. As for `COC(=O)/C=C1/S/C(=N/NC(=O)c2ccccc2C)NC1=O`, the “hERG current change (%, negative = inhibition) at 1uM” value is on record as 9.87%.

For `N#CCCN(C(=O)COC(=O)CCc1c[nH]c2ccccc12)c1ccc(F)cc1`, the “hERG current change (%, negative = inhibition) at 1uM” value worked out at 4.81%. On to `CN1CCN(S(=O)(=O)c2cccc(C(=O)NCc3ccc(Cl)cc3)c2)CC1`, for which the “hERG current change (%, negative = inhibition) at 1uM” value is recorded as 5.17%. To `O=C(Nc1ccc2[nH]c(=O)[nH]c2c1)c1c(F)c(F)c(F)c(F)c1F` belongs 14.1%; to `CCCC(=O)NC(=S)Nc1ccc(Cl)cn1`, 11.2%; to `Cc1nonc1NC(=O)CSc1nc(C23CC4CC(CC(C4)C2)C3)nc2ccccc12`, 14.9%. For the compound `O=C(NCC1(c2ccccc2)CCCC1)c1ccccc1Br`, the “hERG current change (%, negative = inhibition) at 1uM” value was 6.88%. To `COc1ccc(CCNC(=O)C2CCN(S(=O)(=O)N3CCCCCC3)CC2)cc1OC` belongs -0.0748%.

For the compound `COc1ccc(CN2C[C@H](Cc3ccccc3)[C@@H](CC(=O)Nc3ccccc3)C2=O)cc1`, the “hERG current change (%, negative = inhibition) at 1uM” value stood at 6.62%.

Take `CCCC1(C(=O)O)NC(c2ccccc2O)C2C(=O)N(Cc3ccccc3)C(=O)C21` (centres unmarked): the “hERG current change (%, negative = inhibition) at 1uM” value turned out to be 3.09%. To `Cc1ccnc(NS(=O)(=O)c2ccc(NC(=O)CN3C(=O)c4ccccc4S3(=O)=O)cc2)n1` belongs 4.28%. `N#Cc1ccccc1S(=O)(=O)N1CCN(C(=O)CCc2ccccc2)CC1`: the “hERG current change (%, negative = inhibition) at 1uM” value is reported as -4.28%. To `COC(=O)c1nnn(CC(=O)Nc2cccc(Cl)c2)c1C(=O)OC` belongs 5.31%; to `COc1ccc(/C=C(\C#N)C(=O)NC2CCS(=O)(=O)C2)cc1OC` (centres unmarked), 18.5%; to `COC(=O)c1cc(/C=C/c2ccccc2)on1`, 11.5%.

In the case of `COc1cc(C(=O)Nc2ccc3c(c2)OCCO3)c(-n2cnnn2)cc1OC`, the “hERG current change (%, negative = inhibition) at 1uM” value is given as -0.364%. Consider `COc1cccc(/C=C/C(=O)NCc2cn3cc(Cl)ccc3n2)c1`, for which the “hERG current change (%, negative = inhibition) at 1uM” value was 8.22%.

Consider `COc1ccc(N2CCN(Cc3nc4c(c(=O)n(C)c(=O)n4C)n3Cc3cccc(C)c3)CC2)cc1`, for which the “hERG current change (%, negative = inhibition) at 1uM” value was determined as 5.12%. On to `Cc1cccc(Nc2nc(N)nc(CN3CCN(c4ccc(F)cc4)CC3)n2)c1`, for which the “hERG current change (%, negative = inhibition) at 1uM” value is -34.7%. As for `CCOCCN1CCN(C2c3ccccc3CSc3ccccc32)CC1.O=C(O)C(=O)O` (centres unmarked), the “hERG current change (%, negative = inhibition) at 1uM” value is reported as 4.02%. Take `CCCCn1c(N)c(N(CCOC)C(=O)CN(C)S(=O)(=O)c2ccc(F)cc2)c(=O)[nH]c1=O`: the “hERG current change (%, negative = inhibition) at 1uM” value turned out to be 2.86%.

Turning to `CSc1ccccc1OC1CCN(Cc2ccccc2)CC1.Cl`, the “hERG current change (%, negative = inhibition) at 1uM” value was -3.71%. To `C/C(=N\Nc1nccnc1Cl)c1ccc(O)c(C)c1` belongs 13%; to `CC(/C=N/NC(=O)CSc1ccccn1)=C\c1ccc(C(C)C)cc1`, -1.33%. As for `CCOC(=O)CC1=NN(c2ccccc2)C(=O)/C1=C\c1ccc(N(C)C)cc1`, the “hERG current change (%, negative = inhibition) at 1uM” value stood at 13.3%. As to `O=C1CSC(c2ccccc2O)N1Cc1ccccc1` (centres unmarked), the “hERG current change (%, negative = inhibition) at 1uM” value was 9.42%. To `Cc1ccc(C(=O)n2cnnc2N)cc1C` belongs 4.37%; to `O=C(CCN1C(=O)S/C(=C/c2ccccc2)C1=O)Nc1ccc(C(=O)O)c(O)c1`, 19.5%; to `c1ccc(Oc2cc(-c3ccccc3)ncn2)cc1`, -0.547%. `O=C(c1ccc(Cl)cc1)C1CCCN(Cc2ccc3nonc3c2)C1` (centres unmarked): the “hERG current change (%, negative = inhibition) at 1uM” value worked out at 0.831%. Consider `Cc1ccccc1NC(=O)c1c(C)nn(-c2ccccc2)c1Cl`, for which the “hERG current change (%, negative = inhibition) at 1uM” value is on record as -0.531%.

For `O=C(O)c1cc(S(=O)(=O)N2CCCCC2)ccc1Cl`, the “hERG current change (%, negative = inhibition) at 1uM” value was found to be 1.04%. For `Cc1csc2c(=O)n(CCO)c(=O)[nH]c12`, the “hERG current change (%, negative = inhibition) at 1uM” value is recorded as 9.48%.

On to `CC(C)(CNS(C)(=O)=O)SCc1ccc(Cl)cc1`, for which the “hERG current change (%, negative = inhibition) at 1uM” value was 7.7%. Take `COc1ccc(N2CCN(C(=O)CCC(=O)N3Cc4ccccc4Oc4ncccc43)CC2)cc1`: the “hERG current change (%, negative = inhibition) at 1uM” value is listed as 0.308%. For the compound `Cc1ccccc1Nc1nc(Cl)c(C=O)s1`, the “hERG current change (%, negative = inhibition) at 1uM” value is given as 7.79%.

Consider `Cc1ccc2cc(CN(CC3CCCO3)C(=S)Nc3ccccc3)c(=O)[nH]c2c1` (centres unmarked), for which the “hERG current change (%, negative = inhibition) at 1uM” value turned out to be 6.84%.

For `CCOC(=O)CC(=O)Nc1nnc(CC(C)C)s1`, the “hERG current change (%, negative = inhibition) at 1uM” value was 6.93%. To `Cc1ccccc1CNC(=O)C1CCN(c2nnc(N3CCCC3=O)s2)CC1` belongs 14.6%; to `Cc1cc(C(=O)c2ccccc2)c(NC(=O)CCl)s1`, 15.2%; to `Cc1cccc(-c2noc(CN(C(=O)C(c3ccccc3)c3ccccc3)C(C)C)n2)c1`, 2.52%. Regarding `CCOc1cc(S(=O)(=O)N2CCN(Cc3ccccc3)CC2)ccc1Br`, the “hERG current change (%, negative = inhibition) at 1uM” value is recorded as 6.73%. Regarding `CN1/C(=C\C(=O)Nc2ccc(Cl)cc2)C(C)(C)c2ccccc21`, the “hERG current change (%, negative = inhibition) at 1uM” value is given as 13.4%. To `Cc1ccc(-n2c(-c3ccco3)nc3c(cnn3-c3ccc(C)cc3)c2=O)cc1` belongs 15.3%; to `O=C1c2ccccc2C(=O)N1OCc1ccc(Cl)cc1`, 8.72%; to `COc1cc2cc(C#N)c(SCC(=O)N3CCOCC3)nc2cc1OC`, 11.1%. For `O=C(Nc1ccccc1)C1CC(=O)N(c2ccc3c4c(cccc24)CC3)C1` (centres unmarked), the “hERG current change (%, negative = inhibition) at 1uM” value turned out to be 12%. Turning to `CCOc1ccc(NC(C(=O)Nc2cccc(C(C)=O)c2)c2ccccc2)cc1` (centres unmarked), the “hERG current change (%, negative = inhibition) at 1uM” value is on record as -2.99%. The value for `CCOc1ccc(NC(=O)c2ccccc2OC)cc1` was 14.6%; that for `Cc1ccc(=O)n(-c2ccccc2)c1` was 4%.

On to `CCC(C(=O)NCCCN1CC(C)CC(C)C1)n1ncn2c(cc3occc32)c1=O` (centres unmarked), for which the “hERG current change (%, negative = inhibition) at 1uM” value came out at 7.26%. Consider `Nc1c(C(=O)NCc2ccc(F)cc2)c2nc3ccccc3nc2n1CCCN1CCOCC1`, for which the “hERG current change (%, negative = inhibition) at 1uM” value was 15.3%. Regarding `Cc1ccsc1/C=N/NC(=O)c1ccc2c(c1)OCCO2`, the “hERG current change (%, negative = inhibition) at 1uM” value is on record as 13.3%.

With `O=C(NNC(=O)c1nc(Cl)ccc1Cl)c1ccc(F)cc1`, the “hERG current change (%, negative = inhibition) at 1uM” value amounted to 4.11%. Consider `COc1ccc(C2c3[nH]c4ccccc4c3CCN2Cc2cccn2-c2ncccn2)cc1C` (centres unmarked), for which the “hERG current change (%, negative = inhibition) at 1uM” value turned out to be 8.42%. Regarding `Cn1ccnc1SCC(=O)c1cccc(C(F)(F)F)c1`, the “hERG current change (%, negative = inhibition) at 1uM” value was -16.9%. To `COc1ccc(CCNC(=S)Nc2cc(C)cc(C)c2)cc1` belongs 3.09%; to `Cc1ccnc(NC(=O)c2ccc(Cl)c([N+](=O)[O-])c2)c1`, 9.32%.

For `COc1ccc2oc(C(=O)OCC(=O)N(C)C3CCS(=O)(=O)C3)c(C)c2c1` (centres unmarked), the “hERG current change (%, negative = inhibition) at 1uM” value is 4.33%.

On to `O=C1C2C3C=CC(C3)C2C(=O)N1Nc1ccc([N+](=O)[O-])cc1[N+](=O)[O-]` (centres unmarked), for which the “hERG current change (%, negative = inhibition) at 1uM” value is 6.79%. For `N#C/C(=N\[O-])c1nc(-c2ccccc2)cs1.[K+]`, the “hERG current change (%, negative = inhibition) at 1uM” value stood at 1.39%. As to `O=C(/C=C\c1cn(-c2ccccc2)nc1-c1ccc2c(c1)OCCO2)N1CCOCC1`, the “hERG current change (%, negative = inhibition) at 1uM” value was found to be 9.09%. `OCC[C@@H]1C[C@H](O)[C@@H](O)[C@]2(OCCc3ccccc32)O1`: the “hERG current change (%, negative = inhibition) at 1uM” value turned out to be 19%. Take `CNC(=S)Nc1ccc(OC)c(OC)c1`: the “hERG current change (%, negative = inhibition) at 1uM” value is given as 9.05%. The value for `O=C(N[C@@H](Cc1ccccc1)C(=O)OCc1ccccc1)c1nc[nH]c1C(=O)N[C@@H](Cc1ccccc1)C(=O)OCc1ccccc1` was 8.61%; that for `CC1(C)CC(=O)C(C2=NC3(CCCCC3)Cc3ccccc32)=C(O)C1` was -7.51%. As to `O=C(NCc1ccc(Cl)cc1)C(=O)NCC1OCCN1C(=O)c1ccc(Cl)cc1` (centres unmarked), the “hERG current change (%, negative = inhibition) at 1uM” value is on record as 14.6%.

In the case of `C=CCN1C(=O)N(c2ccccc2)C(=O)C1CC(=O)Nc1ccc(OC)cc1` (centres unmarked), the “hERG current change (%, negative = inhibition) at 1uM” value worked out at 11.4%. The value for `N/C(=N\NC(=O)c1cccs1)c1cc2cc(Cl)ccc2oc1=O` was 8.82%; that for `Cc1sc(NC(=S)NC(=O)c2ccc(C(C)(C)C)cc2)c(C#N)c1C` was 3.03%.
